Measurements published in PubChem BioAssay AID1240 (Sanford-Burnham Center for Chemical Genomics, 2008).
Out of some 50,000 compounds screened, about 800 (1.6%) showed an effect of 50% or more. This is one part of the list.

The molecules below were run against Bcl-2-like protein 10 (Homo sapiens) (UniProt Q9HD36) (assay: Phenotype converters, Bcl-B/TR3 peptide binding displacement, primary biochemical FP (AID 1240;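 note: 0% = Bcl-B with tracer peptide and DMSO and 100% = tracer peptide lacking Bcl-B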)). Settings: GST-Bcl-B / FITC-TR3 peptide fluorescence polarization; stronger effect = higher value; compound at 3.75 mg/L.
UniProt Q9HD36, sequence (Q9HD36 whole entry, looked up): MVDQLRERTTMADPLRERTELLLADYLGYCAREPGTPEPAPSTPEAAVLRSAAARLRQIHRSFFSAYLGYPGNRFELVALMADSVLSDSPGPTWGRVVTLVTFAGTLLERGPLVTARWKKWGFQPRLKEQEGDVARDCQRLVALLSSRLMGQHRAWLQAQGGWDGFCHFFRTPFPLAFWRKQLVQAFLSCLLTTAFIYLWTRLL

SMILES | displacement
COc1ccc(C(=O)Nc2cc(Cl)ccc2C)cc1OC | -5.3%
CCOc1ccc(Br)cc1/C=C1/C(=O)NN(c2ccccc2)C1=O | -6%
CC(C)=C1C2C=CC1C1C(=O)N(c3ccccc3[N+](=O)[O-])C(=O)C21 (centres undefined) | 15%
COc1cc(NC(=O)c2sc3ccccc3c2Cl)c(OC)cc1Cl | 12%
CN1C(=O)/C(=C\c2ccc(N(C)C)cc2)SC1=S | -32.7%
Cc1ccc(N=C2NC(=O)/C(=C\c3cccc(Br)c3)S2)cc1C | 8.8%
CCc1ccccc1NC(=O)C1CC2CCC1C2 (centres undefined) | -2.1%
Cc1ccc(-c2nc(-c3cc4cc([N+](=O)[O-])c(O)cc4oc3=O)cs2)cc1 | -4.8%
CC(C)c1ccc(C2/C(=C(\O)c3ccccc3)C(=O)C(=O)N2CCCC(=O)O)cc1 (centres undefined) | 4.9%
Cc1onc(-c2ccccc2)c1C(=O)Nc1sc(C)c(C)c1C(N)=O | 3.8%
O=C(Nc1ccc(Cl)c(Cl)c1)c1cccc2ccccc12 | 10.2%
N#Cc1c(-c2ccc(Cl)cc2)nc2n(c1=O)CCS2 | 0.4%
O=C(Nc1ccccc1-c1nc2ccccc2[nH]1)c1ccc([N+](=O)[O-])cc1 | 7%
Cc1cc(C)c(C(N)=O)c(Nc2cccc(Cl)c2)n1 | -3.9%
Cc1ccc(C)c(NC(=O)c2ccccc2F)c1 | 5.1%
COCCCNC(=O)c1c(Cl)cccc1Cl | 9%
O=C(/C=C/c1cccc([N+](=O)[O-])c1)N1CCN(Cc2ccccc2)CC1 | 0%
O=C1NC(=S)N(c2ccc(Br)cc2)C(=O)/C1=C\c1ccc(-c2ccc([N+](=O)[O-])cc2)o1 | 16.2%
O=C(/C=C/c1cccc([N+](=O)[O-])c1)Nc1ccc(-c2nc3ccccc3o2)cc1 | -5.2%
Cc1ccc(S(=O)(=O)Nc2cc(Sc3nc(C)cc(C)n3)c(O)c3ccccc23)cc1 | -25.1%
CCc1nnc(NC(=O)CN2C(=O)/C(=C/c3ccc(OC)c(OC)c3)SC2=S)s1 | 12.6%
COc1cc(OC)cc(C(=O)N2CCN(Cc3ccccc3C)CC2)c1 | 12.6%

SMILES | displacement
O=C(NCc1ccco1)c1cnn2c1NC(c1ccccc1)CC2C(F)(F)F (centres undefined) | 5.6%
O=[N+]([O-])c1cc(C(F)(F)F)ccc1N/N=C/c1ccc(F)cc1 | 6.3%
Clc1ccccc1-n1nnnc1C(Cl)(Cl)c1nnnn1-c1ccccc1Cl | 6.9%
CCSc1nc2ccccc2n1CCC(=O)O | 16.5%
COc1c(C(=O)/C=C/c2ccccc2)c(O)c(OC)c2occc12 | -5.1%
COc1ccc(-c2nnc(NC(=O)Nc3ccc(Cl)cc3)s2)cc1 | -1.2%
CCCC(=O)NS(=O)(=O)c1ccc(NS(=O)(=O)c2ccc(C)cc2)cc1 | 11.6%
Nc1nc2ccccc2n1CCOc1ccc(F)cc1 | -3.9%
O=C(COc1ccc2ccccc2c1)Nn1cnnc1 | -3.1%
O=C(Nc1ccc(-c2nc3ccccc3s2)c(O)c1)c1ccncc1 | 11.4%
CSc1nnc2n(C)c(=O)c3c4c(sc3n12)COC(C)(C)C4 | -1.6%
O=C(NCc1cccnc1)/C(=C/c1ccc(-c2ccc(Br)cc2)o1)NC(=O)c1ccccc1 | 12.2%
CCCOC(=O)C(C)Sc1n[nH]c(=O)[nH]c1=O (centres undefined) | -7%
O=C(O)c1cccc(Nc2nc(-c3ccc(Cl)cc3)cs2)c1 | -34.4%
O=C(c1ccc(F)cc1)N(C1CCCCC1)C1CCCCC1 | 12.4%
COC(=O)c1ccc(/C=N/Nc2nc(-c3ccc(C)cc3)cs2)cc1 | 4.8%
COc1ccccc1C(=O)N1CCN(Cc2ccccc2[N+](=O)[O-])CC1 | 1.5%
O=C(/C=C/c1cccc([N+](=O)[O-])c1)Nc1ccc2oc(-c3ccccc3F)nc2c1 | 7.6%
O=C(Oc1cccc(C(=S)N2CCOCC2)c1)c1ccc([N+](=O)[O-])cc1 | 12.1%
COc1ccc(Br)cc1C(=O)Nc1cccc(C(F)(F)F)c1 | 9.4%
Brc1ccc(-c2nc(Cc3ccccc3)no2)cc1 | 0.2%
O=C(N/N=C/c1ccc(O)c(O)c1)Nc1ccccc1 | -14%

SMILES | displacement
COCCCNC(=O)CN(c1ccc(OC)cc1OC)S(=O)(=O)c1ccc(C)cc1 | -0.4%
CCOC(=O)c1ccccc1NC(=O)CN1C(=O)c2ccccc2C1=O | 3.5%
CCOC(=O)/C(C#N)=C/N1CCOCC1 | 0.8%
Cc1nnc(NC(=O)C(C)Oc2ccc(Cl)cc2Cl)s1 (centres undefined) | -5.6%
O=C(c1cccc(N2C(=O)C3C4C=CC(C4)C3C2=O)c1)c1cccc(N2C(=O)C3C4C=CC(C4)C3C2=O)c1 (centres undefined) | 1.4%
CCOc1ccc(/C=C2\C(=O)NC(=O)N(c3ccc(Cl)cc3)C2=O)cc1 | -7.2%
COc1ccc(C2CC(=O)C3=C(C2)Nc2ccccc2N(C(C)=O)C3c2ccc(OC)c(OC)c2)cc1 (centres undefined) | -9.5%
CC1(C(=O)N/N=C/c2cccnc2)CC1(Br)Br (centres undefined) | 2.6%
CC(C)CC1CCCCC1OC(=O)CN1CCCCC1 (centres undefined) | -23.6%
CC(C)(C)c1ccc(/C=C2\NC(=S)N(c3ccccc3)C2=O)cc1 | -31.7%
Cc1cc(C(=O)Nc2ccc(C(=O)O)cc2)c(C)o1 | 11.2%
Cc1ccc(N2C(=O)/C(=C/c3cccs3)SC2=S)cc1C | 15.2%
O=C(/C=C/c1ccc(Cl)cc1)NCCN1CCOCC1 | 3%
CCCc1nnc(NC(=O)c2cccc(OCC)c2)s1 | 6.1%
Cc1cc(C)nc(SCC(=O)Nc2ccccc2F)n1 | -6%
Cc1ccc(NC(=O)CN(c2ccc(C(C)C)cc2)S(=O)(=O)c2ccccc2)c(C)c1 | 5.6%
CC(C)c1ccc(-c2nnc(N)s2)cc1 | 6.6%
Cc1cccc(NC(=O)c2ccc3ccccc3n2)c1 | 1.9%
C=CCn1c2ccccc2c2nnc(SCC(=O)Nc3cc(C)on3)nc21 | 10%
NC1=NC(=O)/C(=C\c2cc(Br)ccc2OCc2ccccc2F)S1 | 6.3%
O=C(Nc1ccc(S(=O)(=O)N2CCOCC2)cc1)c1ccccc1Cl | 2%
CCOC(=O)C1=C(C)N=c2s/c(=C\c3cccc([N+](=O)[O-])c3)c(=O)n2C1c1ccc(C)cc1 (centres undefined) | 16.1%

SMILES | displacement
Cc1cc(C)nc(SCC(=O)N2c3ccccc3-c3c(ssc3=S)C2(C)C)n1 | 10%
COc1cccc2c1CC/C(=C\c1ccc(N(C)C)cc1)C2=O | 11.7%
CCOC(=O)C1=C(C)NC(=O)NC1c1ccc(F)c(F)c1 (centres undefined) | -2.1%
COc1ccc(S(=O)(=O)N(C)C2CCCCC2)cc1 | -6.7%
N/C(=N\OC(=O)c1cccc2ccccc12)c1cccc([N+](=O)[O-])c1 | -8.4%
O=C(O)C(=O)/C=C(\O)c1ccc(F)cc1 | 12.6%
Cc1nc(/N=C(/N)NC(=O)Cc2ccccc2)nc2ccccc12 | 48.4%
COc1ccccc1NC(=O)C1=C(C)NC(SCC(N)=O)=C(C#N)C1c1ccco1 (centres undefined) | 12.4%
O=C(NCCOc1ccccc1)c1sc2ccccc2c1Cl | -9.3%
Cc1ccc(NCCC(=O)c2ccc(Br)cc2)cc1C | 10.6%
Cc1ccc(N2C(=O)c3ccc(C(=O)O)cc3C2=O)c(C)c1 | 1.6%
O=[N+]([O-])c1ccc(S(=O)(=O)Nc2ccccc2Br)cc1 | 0.7%
COc1ccc(N2C(=O)Cn3c2nc2c3c(=O)n(C)c(=O)n2C)cc1 | 61.6%
CCCN(CCC)C(=O)C(CC)c1ccccc1 (centres undefined) | 8.5%
O=C(Nc1cccc(O)c1)c1cccc(NC(=O)c2ccc(Cl)c(Cl)c2)c1 | -4.2%
COc1cccc(NC2=NC3(CCCCC3)N=C(N)N2)c1 | -8.5%
COc1ccccc1C/C(N)=N/OC(=O)c1ccc(I)cc1 | 10.8%
O=C(NNS(=O)(=O)c1cccc([N+](=O)[O-])c1)c1ccccc1O | 8%
Cc1ccccc1C(=O)NC(NC(=O)c1ccccc1C)c1ccc(Br)cc1 | -7.2%
CC(C)OC(=O)C1C(=O)CC(C)(O)C(C(=O)OC(C)C)C1c1ccc2c(c1)OCO2 (centres undefined) | 6%
O=C1S/C(=C/c2ccc(Cl)c(Cl)c2)C(=O)N1c1ccccc1 | 17.9%
O=C(O)CCCN1C(=O)/C(=C/c2ccccc2Cl)SC1=S | 22.3%

SMILES | displacement
COc1ccc(C)cc1NC(=O)CN(Cc1ccccc1)S(=O)(=O)c1ccc(OC)c(OC)c1 | -46.5%
O=C(NN1C(=O)CSC1=S)c1ccccc1Br | -16.8%
CCOc1ccc(N(CC(=O)NCCCOC)S(=O)(=O)c2ccc(SC)cc2)cc1 | -10.9%
COC(=O)c1ccc(COc2ccc3c(-c4ccccc4)cc(=O)oc3c2C)cc1 | -1.3%
C[C@H](NC(=O)CCc1ccccc1)c1ccccc1 | 13.4%
O=C1OC(c2ccc(Cl)cc2)=C/C1=C\c1ccc2c(c1)OCO2 | -19.4%
CC(C)Oc1cc2oc(=O)cc(-c3ccccc3)c2cc1Cl | 3.7%
COc1ccc(-n2c(=O)c3c4c(sc3n3c(SCc5ccccc5)nnc23)CCC4)cc1 | -7%
O=C(O)c1cc(-c2ccc(/C=C/c3cc(C(F)(F)F)[nH]c(=O)n3)o2)ccc1Cl | -14.2%
CC(=O)N1c2ccccc2CC(N2CCCCC2)c2ccccc21 (centres undefined) | 12.7%
CCOC(=O)c1ccccc1NC(=O)c1ccc(N(C)S(=O)(=O)c2ccccc2)cc1 | -1.9%
O=C(N/N=C/c1ccccc1Br)C(=O)N/N=C/c1ccccc1Br | 1%
CCOC(=O)c1c(NC(=O)c2c(Cl)ccc(Cl)c2OC)sc2c1CCCC2 | -1.7%
CC1(C)Cc2c(sc3nc(SCC(N)=O)n(Cc4ccccc4)c(=O)c23)CO1 | -3.4%
N#C/C(=C/c1ccc(C(=O)O)cc1)C(=O)Nc1cccc(Br)c1 | -2.2%
COc1cc2ccccc2cc1C(=O)Nc1ccc2c(c1)C(=O)N(C)C2=O | 8.1%
Cc1ccc(OCC(=O)N2CCN(c3ccccn3)CC2)c(C)c1 | -6.5%
COc1ccc(OC)c(S(=O)(=O)N2CCOCC2)c1 | 1.6%
C=CCN1C(=O)/C(=C/c2ccc(O)c(OC)c2)S/C1=N\c1nnc(CC)s1 | 0%
Cc1c(N(C(=O)c2cccc(Cl)c2)C(C)C)c(=O)n(-c2ccccc2)n1C | 4.2%
O=C(c1ccc(Cl)c(Cl)c1)N1CCN(c2ccc([N+](=O)[O-])c3cccnc23)CC1 | 12.6%
